Laboratory results reported in PubChem BioAssay AID1347055 (National Center for Advancing Translational Sciences (NCATS), 2019).
Values joined by “and” are separate entries in the source; they are usually repeats but may differ in a detail not shown here. Equal entries are not always repeated. The campaign covered roughly 54,000 compounds. About 120 (0.22%) were called active. The shares of active, inactive and inconclusive entries below differ from those in the screen. Calls come from the whole dose curve; as a rule, active = well fitted inhibition curve with a large enough effect; inconclusive = small, poorly fitted or top-dose-only effect, or effect the other way; inactive = flat fitted curve, though single readings scatter. No potency is given beside an inconclusive call; the fits are too rough.

The molecules below were run against Fumarate hydratase, mitochondrial (Homo sapiens) (UniProt P07954) (assay: Identification of activators of human fumarate hydratase by quantitative high-throughput screening). Conditions: FH coupled MDH/diaphorase resazurin fluorescence, 15 min; series mostly up to 79.9 µM.
Note: the screen sought activators but most active calls are inhibition curves; nearly all actives have a fitted effect of over 45% in size.
Potency is the fitted concentration of half-maximal effect; tags give direction and shape of the fitted curve.

Chain of UniProt P07954 (P07954 whole entry, looked up): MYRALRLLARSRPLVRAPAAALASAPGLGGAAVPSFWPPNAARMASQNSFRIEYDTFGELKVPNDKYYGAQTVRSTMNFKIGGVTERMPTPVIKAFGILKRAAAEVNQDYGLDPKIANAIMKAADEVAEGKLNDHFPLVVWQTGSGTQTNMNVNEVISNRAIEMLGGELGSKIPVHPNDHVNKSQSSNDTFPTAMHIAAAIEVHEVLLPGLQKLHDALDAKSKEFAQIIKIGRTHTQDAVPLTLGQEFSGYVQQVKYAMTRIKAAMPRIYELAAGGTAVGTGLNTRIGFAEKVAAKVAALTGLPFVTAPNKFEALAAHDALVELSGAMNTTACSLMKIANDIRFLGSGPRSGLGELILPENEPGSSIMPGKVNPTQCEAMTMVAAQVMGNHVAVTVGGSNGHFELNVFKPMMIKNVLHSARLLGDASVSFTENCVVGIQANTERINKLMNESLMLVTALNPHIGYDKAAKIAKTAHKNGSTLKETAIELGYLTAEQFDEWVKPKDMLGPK

Structure (SMILES)	Potency
Cc1cccn2c(=O)cc(CSc3nnc(NC(=O)COc4ccccc4)s3)nc12	inactive
COc1ccc(-c2c(C)nn3c(C(F)(F)F)cc(-c4ccccc4)nc23)cc1OC	inactive
O=c1ccc2c(OCCCCc3ccccc3)c3ccoc3cc2o1	inconclusive [inhibitor, single point]
COc1cc(/C=C\c2ccc(O)cc2)cc(OC)c1	inconclusive [inhibitor, single point]
C=CC(=O)Nc1cccc(Nc2nc(Nc3ccc(NC4CN(CCF)C4)cc3OC)ncc2C(F)(F)F)c1	inconclusive [inhibitor, single point]
CCOc1ccc(CNC(=O)CCS(=O)(=O)c2ccc3c(c2)oc(=O)n3C)cc1	inconclusive [inhibitor, partial curve]
COc1cc(NC(=O)c2nc3ccccc3n(C)c2=O)cc(OC)c1OC	inactive
COc1cccc(-c2nn3c(=O)cc(CN4CCN(C(=O)/C=C/c5ccccc5)CC4)nc3s2)c1	inactive
CC1(C)CCC2(C(=O)OC3OC(CO)C(O)C(O)C3O)CCC3(C)C(=CCC4C5(C)CCC(OC6OC(C(=O)O)C(OC7OC(CO)C(O)C(O)C7O)C(OC7OC(CO)C(O)C(O)C7O)C6O)C(C)(C)C5CCC43C)C2C1 (stereo unspecified)	inactive
COc1ccc(-c2nc(CSCC(=O)N3CCN(c4cccc(C)c4C)CC3)c(C)o2)cc1OC	inconclusive [inhibitor, single point]
COc1ccc(CCNC(=O)c2ccc3c(c2)c(C)c(C)n3Cc2ccc(F)cc2)c(OC)c1OC	inconclusive [inhibitor, single point]
CCCn1c(=O)sc2cc(NC(=O)COc3ccc(Cl)cc3)ccc21	inactive
COc1cccc(CN(C(=O)c2oc3cc(C)ccc3c2C)C2CCS(=O)(=O)C2)c1 (stereo unspecified)	active: 31.6 µM
O=C(O)Cn1nnc(-c2ccc(OCc3cccc(C(F)(F)F)c3)cc2)n1	inactive
COc1ccc(Cl)cc1NS(=O)(=O)c1ccc2[nH]c3c(c2c1)CCCC3	inconclusive [inhibitor, single point]
COc1cc(/C=C/c2nc(C#N)c(N3CCCCCC3)o2)cc(OC)c1OC	active: 28.2 µM
CSCCC(NS(=O)(=O)c1ccc2c(c1)oc(=O)n2C)C(=O)N1CCN(c2cc(C)ccc2C)CC1 (stereo unspecified)	inconclusive [inhibitor, single point]
CCOC(=O)c1oc2c(c1C)-c1nn(Cc3c(F)cccc3Cl)cc1CC2	inconclusive [activator, single point]
Cc1cc(-c2nc(C(=O)Nc3cn(C4CCOCC4)nc3C(N)=O)co2)ccn1	inconclusive [inhibitor, single point]
CCc1cccc(NC(=O)Cn2c(=O)n(CC(=O)NCCc3ccccc3)c(=O)c3ccccc32)c1	inactive
Cc1c(CCNC(=O)c2ccco2)sc2nc(-c3ccc(F)cc3)nn12	inactive

Structure (SMILES)	Potency
COc1cc2c(cc1NS(=O)(=O)c1ccc(Br)cc1C)n(C)c(=O)n2C	inactive
O=C(O)c1n[nH]c2c1C[C@H]1C[C@@H]21	inactive
CCCCN(CC)C(=O)c1cc2c(=O)n3cccc(C)c3nc2n1C	inactive
CC(C)CCNC(=O)Nc1ccc2c(c1)N(Cc1ccccc1)C(=O)c1ccccc1S2	inconclusive [inhibitor, single point]
Cc1c(C(=O)Nc2ccccc2F)sc2ncnc(N(C)C3CCCCC3)c12	inconclusive [inhibitor, partial curve, poor fit]
O=c1onc2n1-c1cc(Br)ccc1OC2	inconclusive [inhibitor, single point]
CC(O)/C=C/C1(O)C(C)C(O[C@@H]2O[C@H](CO)[C@@H](O)[C@H](O)[C@H]2O)C(O)CC1(C)C (stereo partly specified)	inactive
CCCC12CN3CC(CCC)(CN(C1)C3c1ccccc1)C2=O (stereo unspecified)	inconclusive [inhibitor, partial curve, poor fit]
COc1cc(Cl)c(NS(=O)(=O)c2ccc(-c3cnc(C4CC4)o3)cc2)c(OC)c1	inconclusive [inhibitor, single point]
Cn1c(=O)oc2cc(S(=O)(=O)NCCC(=O)NCc3ccc(F)cc3)ccc21	inconclusive [inhibitor, partial curve]
CCOc1cc2ncc(C#N)c(Nc3ccc(OCc4ccccn4)c(Cl)c3)c2cc1NC(=O)/C=C/CN(C)C	inactive
Cc1cc(NC(=O)c2cccc(NC(=O)/C=C/CN(C)C)c2)ccc1Nc1nccc(-c2cccnc2)n1	inconclusive [activator, partial curve, poor fit]
CCN(CCCNC(=O)c1cc2cc3ccc(OC)cc3nc2s1)c1cccc(C)c1	inactive
CC(C)(C)NC(=O)[C@H]1CN(Cc2cccnc2)CCN1C[C@@H](O)C[C@@H](Cc1ccccc1)C(=O)N[C@H]1c2ccccc2C[C@H]1O	inconclusive [inhibitor, full curve]
COc1cccc(NC(CNS(=O)(=O)c2ccc(Cl)cc2)c2ccccc2)c1 (stereo unspecified)	inconclusive [inhibitor, partial curve, poor fit]
Cc1cc(C)cc(NC(=O)N2CCC(CN3CCc4ccccc4C3)CC2)c1	inconclusive [inhibitor, partial curve, poor fit]
CCc1c(C)sc2c1CCN(C(=O)Nc1cc(C)ccc1OC)C2c1ccc(F)cc1 (stereo unspecified)	inconclusive [inhibitor, partial curve]
Cc1ccc(NS(=O)(=O)c2ccc3[nH]c4c(c3c2)CCCCCC4)cc1	inconclusive [inhibitor, partial curve, poor fit]
CCc1oc2ccccc2c1C(=O)c1cc(I)c(O)c(I)c1	inconclusive [inhibitor, partial curve]
O=c1cc(-c2ccc(F)cc2)nc(SCc2nc(-c3cccc(C(F)(F)F)c3)no2)[nH]1	inconclusive [inhibitor, partial curve]
COC(=O)c1ccccc1NC(=O)c1ccc2c(=O)n3c(nc2c1)CCCCC3	inconclusive [inhibitor, single point]

Structure (SMILES)	Potency
Cn1c(=O)n(C)c2cc(N3CCOCC3)c(NC(=O)c3c(F)cccc3F)cc21	inconclusive [inhibitor, partial curve]
Cc1cccc(Cn2nnc(C(=O)Nc3cc(C)ccc3C)c2N)c1	inconclusive [inhibitor, single point]
Cc1ccc(CNC(=O)CCCn2c(=O)c3ccccc3n(Cc3ccccc3C)c2=O)cc1	inconclusive [inhibitor, single point]
CCOc1ccc(C2c3c(oc4ccccc4c3=O)C(=O)N2c2nnc(C)s2)cc1OC (stereo unspecified)	inconclusive [inhibitor, full curve, poor fit]
CCOC(=O)c1c(C)oc2nc(C)nc(NCCCN3CCN(c4ccc(F)cc4)CC3)c12	inconclusive [inhibitor, partial curve]
CCC(Sc1nnc(C)n2c1cc1sccc12)C(=O)Nc1ccccc1F (stereo unspecified)	inconclusive [inhibitor, partial curve]
CCOC(=O)c1c(SCC(=O)Nc2nc3ccccc3s2)nc(=O)[nH]c1C	inactive
CN(Cc1ccc(F)cc1)S(=O)(=O)c1nnc(NC(=O)c2ccccc2Br)s1	inconclusive [inhibitor, partial curve, poor fit]
C[C@@H]1O[C@@H](O[C@@H]2[C@@H](O)[C@@H](O[C@]3(CO)O[C@H](CO)[C@@H](O)[C@@H]3OC(=O)/C=C/c3ccc(O)cc3)O[C@H](CO)[C@H]2OC(=O)/C=C/c2ccc(O)cc2)[C@H](O)[C@H](O)[C@H]1O[C@@H]1O[C@@H](C)[C@H](O[C@@H]2OC[C@](O)(CO)[C@H]2O)[C@@H](O)[C@H]1O	inactive
CCN(CC)S(=O)(=O)c1ccc2c(c1)nc(CN(C)C(=O)Nc1ccc(Cl)cc1)n2C	inconclusive [inhibitor, single point]
CC(C)(C)NCCCNC(=O)c1cccc(Br)c1	inactive
O=C(Cn1nc(N2CCN(c3ccccc3)CC2)ccc1=O)Nc1ccc(F)cc1F	inactive
CC(C)(C)c1ccc(C(=O)N2CCC(c3nc(-c4ccc(S(=O)(=O)N5CCCC5)cc4)no3)CC2)cc1	inconclusive [inhibitor, partial curve, poor fit]
Cc1ccc(-c2n[nH]c3c2C(c2cccc(O)c2)N(c2ccc(C(=O)O)cc2)C3=O)cc1 (stereo unspecified)	inconclusive [inhibitor, partial curve, poor fit]
Cc1ccc(C(=O)Nc2ccc(S(=O)(=O)O)c3cc(S(=O)(=O)O)cc(S(=O)(=O)O)c23)cc1NC(=O)c1cccc(NC(=O)Nc2cccc(C(=O)Nc3cc(C(=O)Nc4ccc(S(=O)(=O)O)c5cc(S(=O)(=O)O)cc(S(=O)(=O)O)c45)ccc3C)c2)c1	active: 6.85 µM and active: 17.4 µM and active: 14.1 µM
COc1ccccc1CNc1nc2ccc(Cl)cc2n2cnnc12	inactive
Cc1cccc(OCC(=O)Nc2nc3c(s2)CC(C(C)(C)C)CC3)c1C (stereo unspecified)	inactive
CCN(CC)c1ccc(NC(=O)c2cnc3c(-c4ccccc4)c(C)nn3c2C)c(C)c1	inconclusive [inhibitor, partial curve]
CC#C[C@@H](CC(=O)O)c1ccc(OCc2ccc(CN3CCC4(C=Cc5ccccc54)CC3)s2)cc1	inactive
